According to the RNAGym collection of RNA variant scans (doi:10.7554/elife.90254):
The source gives no read counts; variants with many changes may rest on few reads.

B1: OR4K15 (parent)
chain: GUUAACGGUCAUAGGCCAUGGAAACUAGGAGCACCAUUUCGCUGCCAGUGAAGAAAUGAACAAAGAAAAUCUGGGCCAGGCAGGCAUCAAAAGAAAUAGUCUUGCGCUCAACCAGAAAGUCUGUAAUCAUUUUAAGGGUA

Variants of: B1
Test: self-cleavage, relative activity (ratio to wild type); higher = more cleavage; in vitro, sequencing; the parent is a self-cleaving ribozyme

Variant | self-cleavage
A4G C25U A82U | 0.25
U2C U37C A68G U70A | 0.7
U2C U87C A111G A114G U132C | 0.02
U3C A94U A114G | 0.78
A5G A22G U70C C101A A116U | 0.14
A4C U26A A92G | 0.49
A5G A22U A60G A96G U100C U120C | 1.84
A4G U70A U133C | 1.41
U3C A36G U38C U72C | 0.66
U3C U38C A47U U102C | 1.33
A4G A95G A110G | 0.19
U3C G106A C109U A126G | 0
A4G U49C U108A A111G | 0.01
U3C U12C U97C U103C U122C | 0.25
U2G A62U U87C A95G U103C G106C | 0.02
U3C A89C U127C | 0.79
A5C U43A A64G | 1.36
U2C U49G A67G C128A | 1.16
U3C G44A A96G U108C A114G | 0.01
A4U A60G U103C | 0.62
U3C U9A A47U U133A | 0.25
A4G A5U A66G A82G A96U A117G | 0.44
U2C U102C A117U | 0.98
A4G G7A A92G U108C | 0.04

Variant | self-cleavage
U2C U43A U72C U139C | 0.07
A4G G14A A55G A91G A114G A135G | 0.16
U3C A5U U38C A69U A95G | 1.91
A5C A22G C42U | 0.73
U3C U39C A78U A91G A118U | 0.05
A4G A5G A51G A52U U131C | 1.17
A4G A11G A22U A30U U124C | 0.85
U3C A110G A111G | 0.02
A5G A22G G44A U49C A90G A91G | 0.92
A4G A33G A52G A92G U108C | 0.01
U3C A52G A114G | 0.67
U3C G29A U57A A89G A96U | 0.84
U2C U102C G106A | 0.02
U3A A5G U132C | 0.95
U3C U43C A86G | 1.2
A4U A51G A114G U122C A135G | 0
A4G A5G U49C A52G | 0.92
A4G A68G A125G | 0.47
U2C U87C U132C | 1.31
U3C A51G A62G | 0.5
A5G A11G U26C | 1.43
A4U A62U U108C A125G U132C | 0.02
U3G U26C U108C U120C A129G U130C | 0.01
U2G U57C U70C | 1.21

Variant | self-cleavage
U3A U57A U100C A116G | 0.84
A4C U103C A126C | 0.58
U2C U57G U87A A90G A129G | 0.87
U3C A36U A59U | 1.77
A5C A51G G53A G58A A86U A96G A111C A116G | 0.03
A5C U100A A118G U130C | 0.22
U2C U72A U132C | 0.15
A5G A18G A52G A114G U131C U132A | 0.36
A4G A66G A95G | 0.65
U3C A18U U72C U122C | 0.09
A4U A27G A55G A56G A78U | 0.59
U3A A27G A125G | 0.34
A5G A22G A64G A126C | 0.35
U3C A89G U108C | 0
A4G A69G C88U G104A | 0.03
U3C A96G G104A | 0.05
A5G A11G A59G A82U A86G | 0.04
U2C U39C A62G A66G U132G | 1.64
A5G A18U U39C U43C A86G A98G | 0.85
U3C A18U A67U A86U U127C | 0.79
A4G G58A G84A A126G U132G | 2.11
A5G A11G U49C | 1.05
U2C U72C A94G | 0.13
U3A A23G A63U | 0.16

Variant | self-cleavage
U3C U37C A90G A91G A114G | 0.37
A4G A56G A94G | 0.28
A4G A51G U122C | 1.32
A4G A24G U37C A47U A51G U57C A126G | 0.49
U2C U49C G104A | 0.02
U3C A63G A117G | 1.02
A4G A78G A86G | 0.45
U3C A24G A55U G79A | 0.16
A4U A24G A90G A96G | 1.44
U3C A47U A54G | 0.93
A4G U70G U122A | 0.22
A4G A11G A36G A82G | 0.72
U2C U57A A59G A60G U139C | 0.71
A5G A18U A63U | 0.93
A5G A23G A59U | 0.51
A5G A18G A54G U102C A126C | 0.77
A4G A54G A56G A91G | 0.78
A5C A11G A54G U87C | 1.54
A4G A24U U38A C40U U43C A55U A86G | 0.75
U3C A47G A55G U131C G137A | 0.75
A4G U130C U139C | 0.63
A5G A11C A24U U49C A52G A64C | 1.08
A4G A89U A110G A111G | 0.05
A4U U102C A135C | 1.53

Variant | self-cleavage
U2G A47G U49G G84U A95G | 0.27
A5C A52G A63G | 1.06
U2C U72C C101A | 0.12
A4G A62G A114U U120A | 0.08
U3C U124A U131C | 0.3
U2C U43C A64G A111G | 0.08
A4G U19C A69U A89U U122A A129G | 1.47
A5G A18G U19C A116G U132C | 0.39
U3C U39A A116U U120C C121A | 0.4
A4G A24G A47G A54G U103C | 0.66
U3A A59G A126G | 0.59
A4G U108C A111G C112U A126U | 0.06
A5G A11G U19C A54U A118G | 0.8
U2G U38C G123A A126U | 0.7
U2C U57C A94G U100C A116G U139C | 1.52
U3A U72C A91U | 0.19
U3A A30U A63G A82G A117U U131C | 0.07
A4G A24C A30G A116U A117G | 0.53
A5C G15U A114G | 0.4
A5G A18G U131C | 0.78
U2C U38C A51G A62G C109A U131C | 0.1
U2G A5G A51G U131G | 0.81
U2G G14A U19A A27G U57C | 0.57
A4U A5U G7A A23G A59G U108C | 0.11

Variant | self-cleavage
U2G G7U A23G U43A A60G A68G | 1.11
A5C U39C A63G | 2.08
U3C A5G A92G A117G | 1.2
U3G A51G U127A | 1.76
A5C A78G U122C U139C | 0.2
A4G A5U U37A A47U A90G | 0.83
U3A U72A G99A | 0.1
A4G A52C A69G | 0.49
A4G U57A C76A | 0.31
U3C A52U U100A | 0.86
U3A C35U A91G A92U | 0.83
A4G U9C U19A A51G A68G A86C U133G | 0.56
A4G U70C A86G G104U | 0.05
A4G A68G U72C U102C A111G | 0.16
U3A G20A U97C | 1.14
U2C U37C A90G C105U U132C | 0.09
U2G A24G U39C A89G | 0.24
A4G U19C A135U | 0.82
U3C A18U A47G U57C | 0.95
A5G A18G U39C A56G A62G U102C U103C | 0
U3C A23U A68G | 1.05
A5G A11U A67G | 0.83
A5G A22G A63G A114G | 0.55
A5G A13G A23G G41U A56G | 0.33

Variant | self-cleavage
U3G A13G A22U A55G | 1
A4G A5G A23G A24G U39A | 1.27
A4G U9C A56G A66G | 1.5
U2C U43C A54G C101U | 0.51
U3C A24U A30G A140U | 0.81
U3C A13G A125U U133C U139G | 0.28
A4U A82G A134G | 1.6
A4G U26C U43C | 0.65
A4G A23G A62G U133C | 0.55
A4G U38G A60U A64G A68G U102C | 1.16
A5C A36G A67G U87C A91U A117G | 0.07
A5G A22G A60G U124C | 0.62
A5G A18G A91U A98G | 0.67
U2G U9A U49C A59G A67G A117G | 1.07
U3A U19C A117G | 1.08
A5G A18U U19C | 0.71
A4G A55G A66G U87C A114C | 0.05
U3C A55G G80A A96G A116G | 0.02
U2G A5G A23G | 0.96
U2C U122C U132A | 0.64
A4C A11G A30G U39C U57C | 1.13
U3C A111G U127A U132C U139C | 0.01
A4G A23G U37C | 1.84
